In PMC10726135 one finds binding signal (log2 normalized intensity) data, which are given here for 93 sequences.

Some of the results follow. At the low end of the ranking the order means little. Measured with an extract: partners may take part in the binding.

In this test the target is T1, HNF4alpha8 (COS-7 nuclear extract) (UniProt P41235-5).
T1 sequence: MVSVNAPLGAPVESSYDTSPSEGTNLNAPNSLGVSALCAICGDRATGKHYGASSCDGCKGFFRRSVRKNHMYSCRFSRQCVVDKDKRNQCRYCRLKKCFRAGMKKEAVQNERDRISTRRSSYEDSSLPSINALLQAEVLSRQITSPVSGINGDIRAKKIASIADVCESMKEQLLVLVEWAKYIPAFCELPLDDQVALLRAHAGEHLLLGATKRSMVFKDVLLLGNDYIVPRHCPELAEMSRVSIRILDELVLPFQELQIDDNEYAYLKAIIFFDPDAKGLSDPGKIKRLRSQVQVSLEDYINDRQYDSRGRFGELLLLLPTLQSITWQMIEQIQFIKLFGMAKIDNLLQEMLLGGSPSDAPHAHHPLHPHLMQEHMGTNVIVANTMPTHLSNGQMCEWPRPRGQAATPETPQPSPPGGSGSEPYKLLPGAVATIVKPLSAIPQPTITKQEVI
The test is described as follows: protein-binding microarray. Conditions: COS-7 nuclear extract on double-stranded Agilent 4x180k PBM; binding buffer, salt, pH and temperature not given; high values mean tight binding; double strand, one strand shown; sequences stand for … in …GCCTAGGGAGATTAGAGTATCGGTCGA
Take ATCCTTTACCTCCACCTCCAAGGTCCCCAA: the binding signal (log2 normalized intensity) is 3.43. The same measure for ACTCCTCGTGGCCCCTGGGTCGTTGGTGCT: 1.21. On to CCTCTGCATTTGCTCCCTGACTTGGTTTAC, for which the binding signal (log2 normalized intensity) stood at 1.48. The value for TGTGCACAGTCCACAGAAACGCAGTCCTGA was -1.36; that for TCTTGTGGTAATCTCTTTTGTGTTAGAGGG was 1.02; that for ATTTTCTAGGAGAATCACTAGGACATATAT was -0.947.

As for AACACATACCTTAAATAAGAGACTCAGGCC, the binding signal (log2 normalized intensity) is -1.03.

For the sequence GCAGCTTGTACCCTTCTTTCCACCCTGTTG, the binding signal (log2 normalized intensity) was 1.55. The value for GAGAGCATTCTGCTGCTCTTTAATCCTAAT was -1.01. The value for CCTCTGGACAAGGGAAGCGTCAATGCCCCA was 2.55; that for AGCATGGCCCTTTGCAGCCCGAGCTGCTGG was -1.39. AGAGAGAGGGAGACAACCTTTGGTCACTTG: the binding signal (log2 normalized intensity) stood at 4.09. The same measure for GGCTAGGGCAAAGATCAAACATACAGTAAA: 2.52; for ATATAAGGTCCAACTGACATCTGGAAATGT: 0.972; for CTCCAAAGGCTGTTTGCACCGTGTGCTTTG: 0.798. The value for CTTTGCCCTTTGTTTACATAGCTCCTTCAT was 1.42. The value for ACATTATCTAACAAGAAGTCTGAAGGCAGG was -1.04; that for TCTGGGGCCCTCTTCTGCATTCTTCTTCTA was -1.2. Turning to GATCTCCTGCACCTGAACTTTGCTCTGTGA, the binding signal (log2 normalized intensity) amounted to 5.78. The same measure for GTCCCAGTAGATAACTTCAAGGAGCTCGGC: -0.935; for GAAAGCCAGCAGGGGCTGCTGGGAGTTGTA: 0.219. The value for GGTTAGCAAGGGCCCCCACTAGAGAGACCG was 1.75; that for TGCCCAGCTTGAATCACTCACTGACCTCTT was 4.46; that for GGGAGTTGTAGTTTTTTGGGCCCCTAGACT was 0.928. Regarding TTAATGTCAAACTGATCAGAAGTGGTTACA, the binding signal (log2 normalized intensity) was 0.916. ACTTTGGTTCACCGCTCACTGCTCCAGCCA: the binding signal (log2 normalized intensity) is -1.39. The same measure for CACATTGCAGTATGCCCCCCCACCCCACAC: 6.96. The same measure for CTAGATTCCAGGAAGAAAGATTGAAGTCTG: -1.11; for ACTTTGACCTTGTTTTCAATGACTACCTGT: 2.13; for TTCTAGATGACCCCTCTCTACTGGTAAGCA: 3.06. The value for GCATGCACTGGGGTTTAAAGTTTATAGGCT was -0.0544. As for ATTACCTGTTCTAAGCACCTCTGCTTATCT, the binding signal (log2 normalized intensity) is -0.361. The value for TGCACATGAGTTCCCGGCAAGCCGACTTAC was -1.36; that for GCCGCCACCCGGTTGGCGCCAATACCTGCC was -1.32; that for TGCAAACTCCAGCATGAGGGGGTGGACTGA was 1.16. The same measure for AAACATGCGCATGTTCCCACGAAACCCTAA: 1.59; for TCAAATGCACCAAAAATATCTTTGTCTCAG: -0.256; for GCGCCACTGCGTCCAGCCACAATTAATGTA: -1.18. For GGCGCAATCTCAGCTCAATCTCTGTCGCCC, the binding signal (log2 normalized intensity) was -1.34. The same measure for TCTTTAAGACAAGTGTCCCTCAAACTGAAG: 0.792. The value for GCTGAGTCCCTGCTTGATAAGACTGACAAC was -1.36. The value for TGGTAGCATGGCTCAGTCCAAGTCCAAAGG was 5.2; that for CTTTGACCATCCACGGATGCATGATTGCTC was -0.923; that for AAGCTCATGAAGCTTCCCCTTTAACCAATA was 1.17.

As for GCACACCGGACTGCGTTTTTTCCGAACGCC, the binding signal (log2 normalized intensity) is -1.32. For AGAGGGGAAGGATGAATTTAAAAAATTCTA, the binding signal (log2 normalized intensity) is -1.34. For TGGTTTTTGTTGTTGAGCAAATCATAGTGT, the binding signal (log2 normalized intensity) worked out at 2.19. The same measure for TATTGTGAGATTACGTAAGTGAAAGTACAC: 1.89; for CAAATGATGTCTCTCATTGGAATGAGCCTC: 0.958. The value for TGGCAGTGAAGGAACTATTGGATTCCCCAA was 0.069; that for TGGGCAGTGCAGTATGCGCTCTGGGAAACA was -1.31. The same measure for GGAGCAGCCTAGTAAAAGGTAGATACTATA: -1.37. As for AACCCATGGGAAGCTTCACAAAGGGCTGAG, the binding signal (log2 normalized intensity) is -1.35. The value for GGAAGAACTGGTTCTGTGGAATTTGTGCTT was 2.39; that for TTTGAAGCAAAGCCTTTGAGCAGATGGAAG was -1.36. The same measure for AACATCTGTATTTAACTTTTGGGATCAGCA: 0.892; for CCTGTTCTTTTGAGCTGTGGTTAAGACTCA: 0.124; for CTCTGCAGAGGCTTCCTCTTTGGTGCAAAG: -1.11.

Turning to TCCTAGGGAAGAAACATTCTGATCAAATAG, the binding signal (log2 normalized intensity) is -0.219. The same measure for CTGCGTAACTTACAGTGCACTTTGACCGCT: 7.74; for ATATTTGTGATTTGAAATTTGTCCTGGTCA: 2.06; for CTGGCAAAACTGGTCAATATCCACACAAAC: -1.12. The same measure for GAGATAAGGCAAGTCCCTTCCACCTATGAA: -1.31; for CCACATTCTTTTAGTGTGCTCTGGGTCTGT: 2.4; for CTGGTACCATGGATGCACTCCATTTACAGA: -0.982. The value for CACACTGCAGCGGCATTCTCTGGTCTGCGG was -1.25. For the sequence GGTGGGCTCCACCCAGTTCGTGCTTCTTGG, the binding signal (log2 normalized intensity) was -1.26. As for TTGCTTCTGCCCCCTGGAGGAGCAAATACT, the binding signal (log2 normalized intensity) was 2.89.

Consider GGATTTTTGCTGAAGACAGGCCAGGGTGAT, for which the binding signal (log2 normalized intensity) worked out at 0.0228. As for ATGGTCTGCTTGATAGCCATCTGGTGGACT, the binding signal (log2 normalized intensity) was determined as 2.74. The value for AGTAAAGGACAAAGTCAACGGCTCTGCATA was -0.847. The value for CAGGCTCCACCGGATGGATAGGAATTGAGT was -1.28; that for GGCCAGTTCAGCGCGTCTTAGCACTCACCC was -1.33; that for AGGTGACAGTTAGGTAAGAGACAAAGGTTG was 2.27. The same measure for TAAGCACAGGTTTCTGTCCTGGTCACAGTA: 0.983.

AGACAACTTAGAATTTCATTTTGCTCTTTG: the binding signal (log2 normalized intensity) was found to be 1.63. The same measure for GCTACGCACCAGGCATACTCCTCCTGGCTT: -1.3; for AAATTTGTGTGTAACATTTGACTTCCCCAA: 2.47; for CTTTTCAGTGCAAGGGACCTAGGTGAGCAG: 1.28. The value for GGGCAGCCCGTGTGGGCGGGTGCAGCTTCC was -0.554; that for TTTCAGCGTCAATATTTGCTGTCTCTTCCA was -0.725; that for TAACCATATGTCTTAAGCTAACATGTACAG was 0.602. The same measure for TCAATAGAGCATGAGAACTTCTTCCAATGA: -0.813; for TTGTGAATAAGGATTATCACTGAATCGAGG: 0.035. As to GGCCAATCCGGCTGGCAGCCGATTGACCTG, the binding signal (log2 normalized intensity) turned out to be 3.35. As for CCAGTGAGACCCATTTTGGACTTTGACCTC, the binding signal (log2 normalized intensity) was 11.8. The same measure for GTTTTTCTTCCGGTCACATACTCTGGAAAT: 1.17; for TCTCACTCCAAAGGCTGTTTGCACCGTGTG: -0.092. The value for AGTGACTTAGCAGGATTCTTGCTACAACTG was -1.33; that for AGGAGAGAGGCCTCTAGATAAACCAAGCCT was -1.31; that for ACCCTCAGCTCCTCTCCTCCATGGCCTGGG was -0.337. The value for AGTGTTGCTCAAGTCTCCTGTTTTCTTATT was 1.31; that for AACTACAGGGTCTGTGGTAGATTATCTACA was -0.399.
